PubChem BioAssay AID504332 (National Center for Advancing Translational Sciences (NCATS), 2011)
Among all 350,000 compounds or so, about 31,000 (8.9%) were called active. The shares of active, inactive and inconclusive entries below differ from those in the screen. The call rests on the fitted dose curve; in most records, active means well fitted inhibition curve with a large enough effect; inconclusive means small, poorly fitted or top-dose-only effect; inactive means no such curve, though single readings can be large or run the other way. A potency beside an inconclusive call is a rough fit, not a confirmed value.

biological target: Histone-lysine N-methyltransferase EHMT2 (Homo sapiens) (UniProt Q96KQ7); test: qHTS Assay for Inhibitors of Histone Lysine Methyltransferase G9a; conditions: G9a H3K9 monomethylation, AlphaScreen, 2 h; activity, negative = inhibition: at 59 µM (top of the series) unless noted; further: nearly all actives have a fitted effect of over 75% in size
Sequence of UniProt Q96KQ7 (Q96KQ7 whole entry, looked up): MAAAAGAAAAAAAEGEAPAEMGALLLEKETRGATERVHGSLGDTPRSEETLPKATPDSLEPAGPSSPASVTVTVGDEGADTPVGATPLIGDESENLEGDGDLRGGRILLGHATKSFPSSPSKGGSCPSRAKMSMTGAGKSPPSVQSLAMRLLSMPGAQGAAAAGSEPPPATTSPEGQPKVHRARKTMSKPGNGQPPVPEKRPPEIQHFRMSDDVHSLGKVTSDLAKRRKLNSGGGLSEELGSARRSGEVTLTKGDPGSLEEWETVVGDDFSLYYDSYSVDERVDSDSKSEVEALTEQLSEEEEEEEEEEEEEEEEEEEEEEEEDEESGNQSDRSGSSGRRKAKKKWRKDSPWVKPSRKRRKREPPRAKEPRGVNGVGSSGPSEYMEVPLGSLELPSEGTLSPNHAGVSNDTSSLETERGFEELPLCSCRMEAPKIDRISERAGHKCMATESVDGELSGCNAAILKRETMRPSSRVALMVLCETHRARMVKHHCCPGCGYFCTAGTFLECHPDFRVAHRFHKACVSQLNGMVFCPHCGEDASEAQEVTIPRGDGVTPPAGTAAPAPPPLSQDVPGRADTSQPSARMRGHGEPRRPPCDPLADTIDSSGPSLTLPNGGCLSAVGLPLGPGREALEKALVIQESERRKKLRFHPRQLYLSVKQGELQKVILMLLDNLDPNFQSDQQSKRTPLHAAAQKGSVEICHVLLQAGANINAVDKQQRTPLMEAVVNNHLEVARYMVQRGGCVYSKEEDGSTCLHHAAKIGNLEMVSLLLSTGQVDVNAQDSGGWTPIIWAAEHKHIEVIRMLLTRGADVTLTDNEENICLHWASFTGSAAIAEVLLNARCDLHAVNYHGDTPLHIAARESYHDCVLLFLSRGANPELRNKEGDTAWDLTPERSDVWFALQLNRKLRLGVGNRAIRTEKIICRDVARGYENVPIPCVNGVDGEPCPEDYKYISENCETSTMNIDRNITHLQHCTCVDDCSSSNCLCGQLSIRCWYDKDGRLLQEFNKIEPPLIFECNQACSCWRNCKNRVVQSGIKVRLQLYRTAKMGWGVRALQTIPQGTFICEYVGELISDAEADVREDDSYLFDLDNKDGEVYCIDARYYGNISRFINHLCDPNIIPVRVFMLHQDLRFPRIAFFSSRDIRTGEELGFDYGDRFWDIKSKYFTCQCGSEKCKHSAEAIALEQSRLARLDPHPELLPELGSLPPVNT
How it was run: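 Step 1: enzyme (final 20 nM) with compound, 15 min RT. Step 2: substrate peptide 500 nM and SAM 20 uM, 2 h RT. Step 3: anti-H3K9me1 antibody and AlphaScreen beads, 10 min, then plate read.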
On the % scale 0 is the no-effect control and ±100 the full control effect; potency means the concentration at half of the fitted maximal effect; tags describe the fitted curve by direction and shape.

Compound	Potency	activity, negative = inhibition
CC(=O)Nc1ccc(N=NC2C(=O)N(C(N)=S)N=C2C)cc1 (stereo not given)	active: 79.4 µM	–
CC(=O)C(Sc1ccc2nnc(-c3cccnc3)n2n1)C(C)=O	active: 70.8 µM	–
COc1ccc(Cc2nnc(NC(=O)c3cc(OC)c(OC)c(OC)c3)s2)cc1	inactive	–
O=C(Nc1cc2cc([N+](=O)[O-])ccc2oc1=O)c1cccs1	inactive	–
Cc1cccc(N2CCN(C(=O)CN3C(=O)COc4ccc(S(=O)(=O)N5CCC(C)CC5)cc43)CC2)c1C	inactive	–
CCc1nnc(NC(=O)CSc2nc3cccnc3n2Cc2ccccc2)s1	inconclusive: 35.5 µM [inhibitor, single point]	–
O=C(N/N=C/c1cccc(Br)c1)c1ccc(N2CCCC2=O)cc1	active: 79.4 µM	–
CCCCN1C(=O)C(=O)N(CC(=O)N2N=C3/C(=C/c4ccco4)CCCC3C2c2ccco2)C1=O (stereo not given)	inconclusive: 11.2 µM [inhibitor, partial curve]	–
COc1ccc(C(CNC(=O)c2ccco2)N2CCCC2)cc1 (stereo not given)	–	inactive: 11.3% [at 12.7 µM]
O=C(CCS(=O)(=O)c1cccc2nsnc12)N1CCN(C(=O)c2ccco2)CC1	inconclusive: 25.1 µM [inhibitor, single point]	–
CCC(=O)Oc1cc(C(C)(C)C)cc2cc(-c3nc(-c4ccc(OC)cc4OC)no3)c(=O)oc12	inactive	–
O=C(c1ccc(N2CCOCC2)c([N+](=O)[O-])c1)N1CCN(S(=O)(=O)c2cccs2)CC1	inconclusive: 20 µM [inhibitor, full curve]	–
O=C(NC(Nc1ncc(S(=O)(=O)c2ccc([N+](=O)[O-])cc2)s1)(C(F)(F)F)C(F)(F)F)c1ccc(Cl)cc1	inconclusive: 25.1 µM [inhibitor, single point]	–
CC[C@@]1(c2ccccc2)C(=O)N(C(=O)OC)N1C(=O)OC	active: 28.2 µM	–
COc1cc(CNc2ccc3[nH]c(=O)[nH]c3c2)cc(Cl)c1OCC(=O)NC(C)(C)C	inconclusive: 2.51 µM [inhibitor, partial curve, poor fit]	–
CCNc1nnc(SCC(=O)NC2CCCCCC2)s1	active: 3.55 µM	–
Cc1ccc(-n2c(C)cc(C3=NNC(=NC4CC4)SC3)c2C)cc1C	active: 44.7 µM	–
CCc1nnc(NC(=O)c2cc(-c3ccccn3)nc3ccccc23)s1	inconclusive: 56.2 µM [inhibitor, partial curve, poor fit]	–
CCOC(=O)c1cnc2c(cnn2C)c1NCCC#N	–	inactive: -29.4% [at 12.7 µM]
O=C(C1CCN(Cc2ccc(F)cc2)CC1)N1CCN(C/C=C/c2ccccc2)CC1	active: 50.1 µM	–
Cc1ccc2nc(NC(=O)COC(=O)CSc3nc(C)cc(C)n3)sc2c1	active: 44.7 µM	–
COc1cc(NC(=S)NCc2ccco2)c(OC)cc1Cl	active: 50.1 µM	–
O=C(CSCc1ccc(Cl)cc1)Nc1ccc2c(c1)OCO2	inconclusive: 22.4 µM [inhibitor, single point]	–
COc1ccc(S(=O)(=O)NCCCN2CCOCC2)c2ccccc12	–	inconclusive: -52.4% [inhibitor]

Compound	Potency	activity, negative = inhibition
Cc1occc1C(=O)N=Nc1c(O)n(C)c2ccccc12	inconclusive: 25.1 µM [inhibitor, partial curve, poor fit]	–
CCOC(=O)/C(CCC[N+](C)(CC)CC)=N\O	active: 11.2 µM	–
CCn1c(O)c(/C=N/N=C2CCCCC2)c2cc(C3=NNC(=O)CC3)ccc21	inconclusive: 31.6 µM [inhibitor, single point]	–
Cn1c(COc2ccccc2)nnc1SCc1cc(=O)[nH]c2ccccc12	inconclusive: 50.1 µM [inhibitor, partial curve, poor fit]	–
COc1ccc(NC(=O)CS(=O)CC(=O)N2CCN(C3CCCC3)CC2)cc1 (stereo not given)	inactive	–
CC(C)C(NS(=O)(=O)c1ccc(Br)s1)C(=O)O (stereo not given)	inconclusive: 89.1 µM [inhibitor, partial curve, poor fit]	–
COc1cccc(C2c3c(oc4cc(C)cc(C)c4c3=O)C(=O)N2CCc2ccc(OC)c(OC)c2)c1 (stereo not given)	inconclusive: 0.794 µM [inhibitor, full curve, poor fit]	–
CCCc1cc(=O)n2c(C(=O)Nc3ccc(OCC)cc3)c(C(=O)Nc3ccc(C)cc3)sc2n1	inconclusive: 25.1 µM [inhibitor, single point]	–
COc1ccc(NC(=O)CCS(=O)(=O)c2nc(-c3cccs3)cc(C(F)(F)F)n2)cc1	–	inconclusive: -51.3% [inhibitor]
Cc1ccc(/C=N/NC(=O)c2csc(C)c2)o1	inconclusive: 25.1 µM [inhibitor, single point]	–
COc1ccc(-n2c(Cc3ccccc3)nnc2SCc2nc(-c3cccs3)no2)cc1	inconclusive: 31.6 µM [inhibitor, partial curve, poor fit]	–
C/C(=N/Nc1ccc(F)cc1)c1ccc(Cl)s1	inconclusive: 20 µM [inhibitor, single point]	–
O=c1cc(CSc2ncn[nH]2)[nH]c2ccc(F)cc12	inconclusive: 39.8 µM [inhibitor, single point]	–
O=C(COc1ccc(C(=O)NCCN2CCOCC2)cc1)Nc1cccc(C(F)(F)F)c1	inactive	–
CCCc1nc2ccc(NC(=O)c3ccco3)cc2c(=O)n1Cc1ccccc1Cl	inconclusive: 39.8 µM [inhibitor, single point]	–
CCc1ccc(NS(=O)(=O)c2ccc3oc(=O)c4ncn(CC)c4c3c2)cc1	active: 10 µM	–
CN(C1CCCC1)C1CCN(C(=S)Nc2cc(F)cc(F)c2)CC1	inconclusive: 56.2 µM [inhibitor, partial curve]	–
COc1ccc(NC(=O)COC(=O)CNC(=O)c2cccs2)cc1Cl	inconclusive: 35.5 µM [inhibitor, single point]	–
CCCCOc1ccc(C(=O)NNC(=S)NC(=O)CC)cc1	active: 20 µM	–
COc1cccc(Nc2ccc(Nc3cccc(OC)c3)nn2)c1	inconclusive: 31.6 µM [inhibitor, single point]	–
CCOC(=O)C1CCN(C(=O)c2ccc(SC)cc2OC)CC1	inactive	–
COc1ccc(-c2nc(Cn3c(SCc4cccc(F)c4)nc4ccncc43)c(C)o2)cc1OC	inconclusive: 20 µM [inhibitor, single point]	–
O=C(Nc1ccccc1)Oc1ccc[nH]c1=O	inconclusive: 3.55 µM [inhibitor, single point]	–
COc1cccc(-n2cc(C(=O)Nc3cccc(C(F)(F)F)c3)c3ccccc3c2=O)c1	inconclusive: 10 µM [inhibitor, partial curve, poor fit]	–

Compound	Potency	activity, negative = inhibition
COc1ccc(N2CCN(C(=O)C3COc4ccccc4O3)CC2)cc1 (stereo not given)	inconclusive: 3.16 µM [inhibitor, single point]	–
CCN(CC)S(=O)(=O)c1ccc2c(c1)N(CC(=O)N1CCN(c3cccc(Cl)c3)CC1)C(=O)CO2	inactive	–
CCC1CN(C(=O)N2CCC(C(=O)NCCc3cc(OC)ccc3OC)CC2)c2ccccc2O1 (stereo not given)	inactive	–
COc1ccc(NC(=O)Nc2ccc(Br)c(C)c2)cc1	inactive	–
Cc1nc2sc3c(c2c(=N)n1N)CCCC3	inconclusive: 50.1 µM [inhibitor, partial curve, poor fit]	–
Cc1cc(Cl)ccc1NC(=O)Cn1nc(C)c2c(C)n(-c3ccccc3)nc2c1=O	inactive	–
COc1ccc(NC(=S)NNC(=O)OC(C)(C)C)cc1OC	inconclusive: 89.1 µM [inhibitor, single point]	–
CCCCN(C)CCCN1C(=O)C2C(C(=O)Nc3cccc(OC)c3)C3C=CC2(O3)C1C(=O)NC1CCCCC1C (stereo not given)	inconclusive: 100 µM [inhibitor, single point]	–
Cc1cc([N+](=O)[O-])ccc1NC(=O)CSc1nncn1-c1ccccn1	inconclusive: 39.8 µM [inhibitor, single point]	–
O=C(O)c1cc([N+](=O)[O-])cc([N+](=O)[O-])c1N1CCN(c2cccc(C(F)(F)F)c2)CC1	active: 56.2 µM	–
CCOC(=O)C1CCN(Cc2nc3ccc(Cl)cc3n2CCO)CC1	inconclusive: 6.31 µM [inhibitor, single point]	–
CCC(=O)OC1CCC2C3CCc4cc(O)ccc4C3CC[C@]12C (stereo not given in full)	–	inactive: -5.83% [at 2.33 µM]
O=C(OCC(=O)N1CCN(C(=O)c2ccco2)CC1)c1sc2cc(F)ccc2c1Cl	–	inactive: -45.9% [at 12.7 µM]
CCCCOc1ccc(C(=O)NC)cc1	–	inactive: 13.4% [at 12.7 µM]
COc1cc(/C=C2\OC(=O)c3c(OC)cccc32)ccc1O	inactive	–
Cc1[nH]n(-c2ccccc2)c(=O)c1C(c1cc(Cl)ccc1O)c1c(C)[nH]n(-c2ccccc2)c1=O	inconclusive: 8.91 µM [inhibitor, partial curve, poor fit]	–
CC1CCC(NC(=O)CN2C(=O)C3CC=CCC3C2=O)CC1 (stereo not given)	–	inactive: 13.4% [at 12.7 µM]
O=C(NCc1cccnc1)c1cccc2c1C(=O)N(C1CCCCC1)C2	inconclusive: 39.8 µM [inhibitor, single point]	–
O=C(c1cnn2c1NC(c1ccc(Br)cc1)CC2C(F)(F)F)N1CCN(C23CC4CC(CC(C4)C2)C3)CC1 (stereo not given)	active: 28.2 µM	–
O=C(NCc1cccs1)c1nn(-c2ccccc2Cl)nc1CO	inconclusive: 6.31 µM [inhibitor, single point]	–
COCCCNc1nc2c(S(=O)(=O)c3ccccc3)nnn2c2ccc(Cl)cc12	inactive	–
COc1ccc(-c2oc(=O)n(C)c2-c2ccc(OC)cc2)cc1	inactive	–
